Reference: the supplement of paper PMC8728848
Some of the results follow.

Assays:
Experiment in all cases: glycan array binding signal (z-score within array); higher = stronger binding
Settings in all cases: glycan notation: IUPAC condensed, linker removed
[1] = target: Neu5Ac(a2-3)Gal(b1-4)GlcNAc(b1-3)Gal(b1-4)[Fuc(a1-3)]GlcNAc
How it was run: (§1)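 Arrays were curated from the Consortium for Functional Glycomics database, 3228 in total, and kept only where the protein sequence was available. Binding is expressed as a within-array Z-score. This score was averaged across arrays of the same protein sequence at different concentrations or buffers and across linkers, and negative values can be read as non-binding.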

[2] = target: Neu5Ac(a2-3)Gal(b1-4)GlcNAc(b1-3)GalNAc
How it was run: as §1

[3] = target: Neu5Ac(a2-3)Gal(b1-4)GlcNAc(b1-6)[Gal(b1-3)]GalNAc
How it was run: as §1

[4] = target: Neu5Ac(a2-3)Gal(b1-4)GlcNAc(b1-6)[Neu5Ac(a2-3)Gal(b1-3)]GalNAc
How it was run: as §1

[5] = target: Neu5Ac(a2-3)Gal(b1-4)GlcNAc6S
How it was run: as §1

[6] = target: Neu5Ac(a2-3)Gal(b1-4)[Fuc(a1-3)]GlcNAc
How it was run: as §1

[7] = target: Neu5Ac(a2-3)Gal(b1-4)[Fuc(a1-3)]GlcNAc(b1-3)Gal
How it was run: as §1

[8] = target: Neu5Ac(a2-3)Gal(b1-4)[Fuc(a1-3)]GlcNAc(b1-3)Gal(b1-4)GlcNAc
How it was run: as §1

[9] = target: Neu5Ac(a2-3)Gal(b1-4)[Fuc(a1-3)]GlcNAc(b1-3)Gal(b1-4)[Fuc(a1-3)]GlcNAc(b1-3)Gal(b1-4)[Fuc(a1-3)]GlcNAc
How it was run: as §1

[10] = target: Neu5Ac(a2-3)Gal(b1-4)[Fuc(a1-3)]GlcNAc(b1-3)GalNAc
How it was run: as §1

[11] = target: Neu5Ac(a2-3)Gal(b1-4)[Fuc(a1-3)]GlcNAc(b1-6)[Gal(b1-3)]GalNAc
How it was run: as §1

[12] = target: Neu5Ac(a2-3)Gal(b1-4)[Fuc(a1-3)]GlcNAc(b1-6)[Neu5Ac(a2-3)Gal(b1-3)]GalNAc
How it was run: as §1

[13] = target: Neu5Ac(a2-3)Gal(b1-4)[Fuc(a1-3)]GlcNAc6S
How it was run: as §1

[14] = target: Neu5Ac(a2-3)Gal6S(b1-4)GlcNAc
How it was run: as §1

[15] = target: Neu5Ac(a2-3)Gal6S(b1-4)[Fuc(a1-3)]GlcNAc
How it was run: as §1

[16] = target: Neu5Ac(a2-3)GalNAc
How it was run: as §1

[17] = target: Neu5Ac(a2-3)GalNAc(b1-4)GlcNAc
How it was run: as §1

[18] = target: Neu5Ac(a2-3)[GalNAc(b1-4)]Gal(b1-4)Glc
How it was run: as §1

[19] = target: Neu5Ac(a2-3)[GalNAc(b1-4)]Gal(b1-4)GlcNAc
How it was run: as §1

[20] = target: Neu5Ac(a2-3)[GalNAc(b1-4)]Gal(b1-4)GlcNAc(b1-3)GalNAc
How it was run: as §1

[21] = target: Neu5Ac(a2-3)[Neu5Ac(a2-6)]GalNAc
How it was run: as §1

[22] = target: Neu5Ac(a2-6)Gal
How it was run: as §1

[23] = target: Neu5Ac(a2-6)Gal(b1-3)GlcNAc(b1-3)[Gal(b1-4)GlcNAc(b1-6)]Gal(b1-4)Glc
How it was run: as §1

[24] = target: Neu5Ac(a2-6)Gal(b1-4)Glc
How it was run: as §1

[25] = target: Neu5Ac(a2-6)Gal(b1-4)GlcNAc
How it was run: as §1

[26] = target: Neu5Ac(a2-6)Gal(b1-4)GlcNAc(b1-2)Man(a1-3)Man(b1-4)GlcNAc(b1-4)GlcNAc
How it was run: as §1

[27] = target: Neu5Ac(a2-6)Gal(b1-4)GlcNAc(b1-2)Man(a1-3)[Gal(b1-4)GlcNAc(b1-2)Man(a1-6)]Man(b1-4)GlcNAc(b1-4)GlcNAc
How it was run: as §1

[28] = target: Neu5Ac(a2-6)Gal(b1-4)GlcNAc(b1-2)Man(a1-3)[GlcNAc(b1-2)Man(a1-6)]Man(b1-4)GlcNAc(b1-4)GlcNAc
How it was run: as §1

[29] = target: Neu5Ac(a2-6)Gal(b1-4)GlcNAc(b1-2)Man(a1-3)[GlcNAc(b1-2)Man(b1-4)GlcNAc(b1-2)Man(a1-6)]Man(b1-4)GlcNAc(b1-4)GlcNAc
How it was run: as §1

[30] = target: Neu5Ac(a2-6)Gal(b1-4)GlcNAc(b1-2)Man(a1-3)[Man(a1-6)]Man(b1-4)GlcNAc(b1-4)GlcNAc
How it was run: as §1

[31] = target: Neu5Ac(a2-6)Gal(b1-4)GlcNAc(b1-2)Man(a1-3)[Neu5Ac(a2-6)Gal(b1-4)GlcNAc(b1-2)Man(a1-6)]Man(b1-4)GlcNAc(b1-4)GlcNAc
How it was run: as §1

[32] = target: Neu5Ac(a2-6)Gal(b1-4)GlcNAc(b1-2)Man(a1-6)Man(b1-4)GlcNAc(b1-4)GlcNAc
How it was run: as §1

[33] = target: Neu5Ac(a2-6)Gal(b1-4)GlcNAc(b1-2)Man(a1-6)[Gal(b1-4)GlcNAc(b1-2)Man(a1-3)]Man(b1-4)GlcNAc(b1-4)GlcNAc
How it was run: as §1

B1: AFL (Aspergillus fumigatus), Q4WW81 (protein)
chain: STPGAQQVLFRTGIAAVNLTNHLRVYFQDVYGSIRESLYEGSWANGTEKNVIGNAKLGSPVAATSKELKHIRVYTLTEGNTLQEFAYDSGTGWYNGGLGGAKFQVAPYSRIAAVFLAGTDALQLRIYAQKPDNTIQEYMWNGDGWKEGTNLGGALPGTGIGATSFRYTDYNGPSIRIWFQTDDLKLVQRAYDPHKGWYPDLVTIFDRAPPRTAIAATSFGAGNSSIYMRIYFVNSDNTIWQVCWDHGKGYHDKGTITPVIQGSEVAIISWGSFANNGPDLRLYFQNGTYISAVSEWVWNRAHGSQLGRSALPPA
**Q.** B1 was tested. Which “glycan array binding signal (z-score)” value [1] did it give?
**A.** -0.39

**Q.** And the “glycan array binding signal (z-score)” value [2]?
**A.** -0.391

**Q.** And the “glycan array binding signal (z-score)” value [3]?
**A.** -0.391

**Q.** What about the “glycan array binding signal (z-score)” value [4] of the same binder?
**A.** -0.38

**Q.** What about the “glycan array binding signal (z-score)” value [5] of the same binder?
**A.** -0.385

**Q.** And the “glycan array binding signal (z-score)” value [6]?
**A.** 0.383

**Q.** What about the “glycan array binding signal (z-score)” value [7] of the same binder?
**A.** 1.03

**Q.** What about the “glycan array binding signal (z-score)” value [8] of the same binder?
**A.** 0.961

**Q.** And the “glycan array binding signal (z-score)” value [9]?
**A.** 1.83

**Q.** And the “glycan array binding signal (z-score)” value [10]?
**A.** -0.317

**Q.** What about the “glycan array binding signal (z-score)” value [11] of the same binder?
**A.** -0.35

**Q.** And the “glycan array binding signal (z-score)” value [12]?
**A.** -0.339

**Q.** What about the “glycan array binding signal (z-score)” value [13] of the same binder?
**A.** 1.44

**Q.** And the “glycan array binding signal (z-score)” value [14]?
**A.** 0.683

**Q.** And the “glycan array binding signal (z-score)” value [15]?
**A.** 0.939

**Q.** What about the “glycan array binding signal (z-score)” value [16] of the same binder?
**A.** -0.384

**Q.** What about the “glycan array binding signal (z-score)” value [17] of the same binder?
**A.** -0.383

**Q.** What about the “glycan array binding signal (z-score)” value [18] of the same binder?
**A.** -0.385

**Q.** What about the “glycan array binding signal (z-score)” value [19] of the same binder?
**A.** -0.385

**Q.** And the “glycan array binding signal (z-score)” value [20]?
**A.** -0.385

**Q.** What about the “glycan array binding signal (z-score)” value [21] of the same binder?
**A.** -0.389

**Q.** And the “glycan array binding signal (z-score)” value [22]?
**A.** -0.382

**Q.** And the “glycan array binding signal (z-score)” value [23]?
**A.** -0.383

**Q.** What about the “glycan array binding signal (z-score)” value [24] of the same binder?
**A.** -0.385

**Q.** What about the “glycan array binding signal (z-score)” value [25] of the same binder?
**A.** -0.381

**Q.** What about the “glycan array binding signal (z-score)” value [26] of the same binder?
**A.** -0.391

**Q.** What about the “glycan array binding signal (z-score)” value [27] of the same binder?
**A.** -0.381

**Q.** And the “glycan array binding signal (z-score)” value [28]?
**A.** -0.384

**Q.** And the “glycan array binding signal (z-score)” value [29]?
**A.** -0.391

**Q.** What about the “glycan array binding signal (z-score)” value [30] of the same binder?
**A.** -0.392

**Q.** And the “glycan array binding signal (z-score)” value [31]?
**A.** -0.367

**Q.** And the “glycan array binding signal (z-score)” value [32]?
**A.** -0.377

**Q.** What about the “glycan array binding signal (z-score)” value [33] of the same binder?
**A.** -0.383
